Measurements: PubChem BioAssay AID894 (National Center for Advancing Translational Sciences (NCATS), 2007)
Screen size: about 150,000 compounds; about 6,500 (4.3%) were called active. Inconclusive means that the source gave no clear call. Such entries were picked first, then a sample of the others. The call rests on the fitted dose curve; in most records, active means well fitted inhibition curve with a large enough effect (not every such curve was filed as active); inconclusive means small, poorly fitted or top-dose-only effect, or another doubt; inactive means no such curve, though single readings can be large or run the other way. Potencies of inconclusive entries are left out as doubtful fits.
On the % scale 0 is the no-effect control and ±100 the full control effect; potency means the concentration at half of the fitted maximal effect; tags describe the fitted curve by direction and shape.

These compounds were tested against 15-hydroxyprostaglandin dehydrogenase [NAD(+)] (Homo sapiens) (UniProt P15428) (assay: qHTS Assay for Inhibitors of HPGD (15-Hydroxyprostaglandin Dehydrogenase)). Settings: purified HPGD, NADH fluorescence kinetic, PGE2 substrate; activity change, negative = inhibition: stronger effect = lower value.
Sequence of UniProt P15428 (P15428 whole entry, looked up): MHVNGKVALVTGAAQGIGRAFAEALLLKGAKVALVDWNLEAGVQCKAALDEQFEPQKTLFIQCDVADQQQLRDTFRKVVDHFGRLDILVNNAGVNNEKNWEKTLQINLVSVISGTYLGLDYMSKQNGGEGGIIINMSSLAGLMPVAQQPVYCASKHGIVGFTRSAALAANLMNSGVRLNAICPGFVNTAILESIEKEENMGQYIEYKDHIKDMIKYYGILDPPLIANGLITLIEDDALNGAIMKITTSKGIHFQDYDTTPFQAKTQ
How it was run: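 NADH formation kinetics: reaction with 30 uM PGE2 and 1 mM NAD+ (final), 20 nM enzyme, Tris-HCl pH 8 with Tween 20, after 15 min compound preincubation at room temperature. Fluorescence change, last versus first of five reads.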
For `CCn1c(SCc2nc3ccccc3c(=O)[nH]2)nc2ccccc2c1=O`, the Potency was inconclusive [inhibitor, partial curve, poor fit]. For `O=C(/C=C/c1c(Cl)cccc1Cl)N1CCN(c2ncccn2)CC1`, the Potency was inconclusive [inhibitor, single point]. For `CCOc1ccc2[nH]c(=O)c(CN(CCO)C(=O)c3ccc(OC)c(OC)c3)cc2c1`, the Potency was inconclusive [inhibitor, single point]. `COc1ccc2c(c1OC)C(=O)N1C(C(=O)O)Cc3c([nH]c4ccccc34)C21` (configuration not stated) was tested, and the Potency was inconclusive [inhibitor, partial curve]. With `COC(=O)c1ccccc1NC(=O)c1ccc(NS(C)(=O)=O)cc1` the Potency was inconclusive [inhibitor, single point]. In the case of `Cc1cccc(NC(=S)N(CCN(C)C)Cc2cc3cc(C)cc(C)c3[nH]c2=O)c1`, the activity change, negative = inhibition is reported as inactive: -7.32%. For `O=C(COC(=O)c1ccccc1NS(=O)(=O)c1cccs1)NC1CCCCC1`, the Potency was inconclusive [inhibitor, partial curve]. For `COc1ccc(/C=N/Nc2nncc3ccccc23)cc1`, the activity change, negative = inhibition was inactive: -7.95%. In the case of `CC(=O)Nc1ccc(S(=O)(=O)N2CCSC2C(=O)O)cc1` (configuration not stated), the activity change, negative = inhibition is reported as inactive: -14.1%. In the case of `Nc1nc2nc(-c3ccc(OCc4ccccc4)cc3)cc(C(F)(F)F)n2n1`, the Potency is reported as inconclusive [inhibitor, partial curve]. `COC(=O)CCS(=O)(=O)c1nc(-c2ccccc2)cc(C(F)(F)F)n1` was tested, and the Potency was active: 28.2 µM. With `COc1ccc(C(=S)N2CCOCC2)cc1OS(=O)(=O)c1ccccc1[N+](=O)[O-]` the Potency was active: 31.6 µM. In the case of `CCOc1ccc2[nH]c(=O)c(CN(Cc3ccccc3)C(=O)N3CCCC3)cc2c1`, the Potency is reported as inconclusive [inhibitor, partial curve]. In the case of `COc1ccc(-c2nc(SCc3ccccc3)n(C(=O)c3ccco3)n2)cc1`, the Potency is reported as inconclusive [inhibitor, single point]. With `O=c1cc(-c2ccc(O)c(O)c2)oc2ccccc12` the Potency was active: 7.08 µM. For `O=C(O)c1cc(N(Cc2ccccc2O)Cc2cc(O)ccc2O)ccc1O`, the Potency was inconclusive [inhibitor, partial curve]. With `Cc1ccc(Cn2c(SCC(C)C)nc3c2c(=O)[nH]c(=O)n3C)cc1` the Potency was active: 20 µM. For `CCOC(=O)c1cc(-c2ccc(OC)cc2F)nc2c1c(C)nn2CCC#N`, the Potency was inconclusive [inhibitor, partial curve]. For `CC1=NOC(=O)/C1=C\c1ccc(-c2cccc(Cl)c2)o1`, the Potency was active: 3.16 µM. `O=C(Nc1cc(S(=O)(=O)Nc2ccc(Cl)cc2)ccc1N1CCCCC1)c1ccc(F)cc1` was tested, and the Potency was inconclusive [inhibitor, partial curve]. For `Cc1nc2c(-c3ccccc3)c(C)nn2c(N)c1-c1ccccc1`, the Potency was inconclusive [inhibitor, partial curve]. `CC(=O)Nc1ccc(S(=O)(=O)N2CCC(NC(=O)C(Cc3cccn3C)NC(C)=O)CC2)cc1` (configuration not stated) was tested, and the activity change, negative = inhibition was inactive: -1.55%. With `O=c1[nH]c(-c2ccccn2)cc2ccccc12` the Potency was inconclusive [inhibitor, partial curve]. `COc1ccc2c(c1)c1ccccc1n2C` was tested, and the Potency was inconclusive [inhibitor, partial curve]. In the case of `CCOC(=O)c1ccc2nc(Nc3nc4ccc(F)cc4s3)sc2c1`, the Potency is reported as inconclusive [inhibitor, partial curve]. `CCOc1cc(NC(=O)C2CCCO2)c(OCC)cc1NC(C)=O` (configuration not stated) was tested, and the activity change, negative = inhibition was inactive: -5.54%. For `c1ccc(-c2nnc(CSc3nnc(-c4ccncc4)n3Cc3ccco3)o2)cc1`, the Potency was active: 20 µM. In the case of `O=c1c2c(nc3cc(-c4ccc(F)cc4)[nH]n13)CCCC2`, the Potency is reported as inconclusive [inhibitor, partial curve]. In the case of `Cn1c(=O)[nH]c(Nc2ccc(F)cc2)c([N+](=O)[O-])c1=O`, the activity change, negative = inhibition is reported as inactive: -29.3%. With `Cc1oc(-c2ccccc2Cl)cc1-c1nn2c(-c3ccco3)nnc2s1` the activity change, negative = inhibition was inactive: -14%. With `NC(=S)N/N=C\c1ccc(-c2cccc(Cl)c2Cl)o1` the Potency was inconclusive [inhibitor, partial curve]. In the case of `CCOC(=O)C1CSC(Cc2ccc(OCc3ccc([N+](=O)[O-])cc3)cc2)N1` (configuration not stated), the activity change, negative = inhibition is reported as inactive: -23.3%. With `CCOc1cc(-c2cc(-c3ccc(C)o3)nc(N)c2C#N)ccc1O` the Potency was inconclusive [inhibitor, single point]. With `CCCN1C(=O)c2ccccc2NC1c1ccc(OC)cc1O` (configuration not stated) the Potency was inconclusive [inhibitor, partial curve]. With `CC(C)=C1SC(N2CCN(c3cccc(C)c3)CC2)=NC1=O` the activity change, negative = inhibition was inactive: -16.6%. In the case of `O=C(c1ccc([N+](=O)[O-])cc1)n1nc(-c2ccccc2)nc1NCc1ccccc1`, the Potency is reported as inconclusive [inhibitor, partial curve]. `Cc1csc(NC(=O)CSc2nnc(-c3ccncc3)o2)n1` was tested, and the Potency was inconclusive [inhibitor, single point]. For `CN(c1ccc(C(=O)N2CCCCC2)cc1)S(C)(=O)=O`, the Potency was active: 10 µM. `O=C1CC2(CCCCC2)Oc2ccc(OCC(=O)N3CCOCC3)cc21` was tested, and the Potency was inconclusive [inhibitor, partial curve]. `CNC(=O)c1cc2ccccc2o1` was tested, and the activity change, negative = inhibition was inactive: -0.464%. In the case of `COc1ccccc1NS(=O)(=O)c1cccc(C(=O)N/N=C/c2cn(-c3ccccc3)nc2-c2ccccc2)c1`, the Potency is reported as inconclusive [inhibitor, partial curve]. `CCOc1cccc(Nc2cc3n(c(=O)n2)CCc2cc(OC)c(OC)cc2-3)c1` was tested, and the Potency was inconclusive [inhibitor, partial curve]. For `CCOc1ccc(C(c2c(NC(=O)c3ccccc3)sc(C)c2C)N2CCN(C)CC2)cc1` (configuration not stated), the Potency was inconclusive [inhibitor, single point]. In the case of `Cc1c(Cl)c([N+](=O)[O-])nn1CCCC(=O)Nc1sc2c(c1C(N)=O)CCC(C)C2` (configuration not stated), the Potency is reported as active: 5.01 µM. `O=C(C1CCC(C(=O)N2CCCCC2)CC1)N1CCCCC1` (configuration not stated) was tested, and the Potency was inconclusive [inhibitor, partial curve]. In the case of `O=C(CCSCc1cccc(Cl)c1)NC1CCCC1`, the Potency is reported as active: 14.1 µM. In the case of `CCCCSc1nnc(-c2ccc(NC(C)=O)cc2)n1C`, the Potency is reported as inconclusive [inhibitor, partial curve, poor fit]. With `C/C(=C\C(=O)c1ccccc1)NCc1ccc(F)cc1` the Potency was inconclusive [inhibitor, partial curve]. For `O=C(c1cccc(Cl)c1)N1CCC(=O)N([C@H](COCc2cccc(Cl)c2)Cc2ccccc2)CC1`, the activity change, negative = inhibition was inactive: -3.17%. In the case of `CCOC(=O)C1CCCN(C2CC(=O)N(c3ccc(C)c(C)c3)C2=O)C1` (configuration not stated), the activity change, negative = inhibition is reported as inactive: -4.43%. For `COCC(=O)N1CCC2(CC1)CN(c1ccccc1)C2`, the activity change, negative = inhibition was inactive: -9.06%. With `Cc1cc(C)nc(N2N=C(C(C)(C)C)CC2=O)n1` the activity change, negative = inhibition was inactive: -4%. `O=[N+]([O-])c1ccccc1S(=O)(=O)Oc1ccccc1/C=N/n1cnnc1` was tested, and the Potency was active: 17.8 µM. `Cc1cc(C)c(C#N)c(SCc2ccc(C#N)cc2)n1` was tested, and the activity change, negative = inhibition was inactive: -5.34%. With `CCCCNC(=O)CCC(=O)Nc1ccc2nc(N3CCOCC3)cc(C)c2c1` the Potency was inconclusive [inhibitor, partial curve]. In the case of `CC(C)c1cc(NCCCN2CCOCC2)n2c(nc3ccccc32)c1C#N`, the Potency is reported as inconclusive [inhibitor, partial curve]. With `CC1=CC(C)(C)Nc2cc(C)c(C)cc21` the Potency was inconclusive [inhibitor, partial curve]. With `C/C=C/c1c(F)c(F)c(Oc2ccc(C(=O)O)cc2)c(F)c1F` the Potency was inconclusive [inhibitor, partial curve]. For `FC(F)(F)c1cnc(Oc2ccc(-c3nnco3)cc2)c(Cl)c1`, the Potency was active: 11.2 µM. In the case of `CSc1nc(NCC(C)C)c2c3c(sc2n1)CN(C)CC3`, the Potency is reported as inconclusive [inhibitor, single point]. For `O=C(CN1CCN(Cc2cccc(Cl)c2)C1=O)NCc1ccccn1`, the activity change, negative = inhibition was inactive: -10.3%. `O=C(O)CCCC[C@H]1SC[C@H]2NC(=O)N[C@@H]21` was tested, and the activity change, negative = inhibition was inactive: -15.6%. `CCCCOc1ccc(Cc2c(Cl)nc(SC)nc2N2CCOCC2)cc1` was tested, and the Potency was inconclusive [inhibitor, partial curve]. For `S=C(Nc1ccccc1)Nn1cnnc1`, the Potency was active: 14.1 µM. For `CCOC(=O)CN1C(=O)N[C@@H](c2cccc(C(F)(F)F)c2)[C@H](C(=O)OC)[C@H]1C`, the activity change, negative = inhibition was inactive: -3.49%. For `O=C(NCC1CCCO1)c1c(O)c2c([nH]c1=O)CCCC2` (configuration not stated), the Potency was inconclusive [inhibitor, single point]. With `C=CCOc1c(Br)cc(C2C3=C(CCCC3=O)N(C)C3=C2C(=O)CCC3)cc1OCC` the Potency was inconclusive [inhibitor, partial curve]. For `Cc1cc(C)n(CC(=O)N/N=C/c2cc([N+](=O)[O-])ccc2O)n1`, the Potency was inconclusive [inhibitor, partial curve]. `O=C(O)Cc1sc(N/N=C\c2ccccc2)nc1-c1ccccc1` was tested, and the Potency was inconclusive [inhibitor, partial curve]. For `Cc1sc2nc(SCC(=O)NCc3cccs3)[nH]c(=O)c2c1C`, the Potency was active: 25.1 µM. `Cc1ccccc1Oc1cc(-n2ncc(Cl)c(Cl)c2=O)ncn1` was tested, and the activity change, negative = inhibition was inactive: -16.7%. In the case of `O=C(Cc1ccc(Cl)cc1)Nc1ccc2oc(-c3ccncc3)nc2c1`, the Potency is reported as inconclusive [inhibitor, partial curve].
